Experimental data published in PubChem BioAssay AID686978 (National Center for Advancing Translational Sciences (NCATS), 2013).
Among all 420,000 compounds or so, about 64,000 (15%) were called active. Inconclusive means that the source gave no clear call. Such entries were picked first, then a sample of the others. Calls follow the shape of the dose curve; as a rule, active = well fitted inhibition curve with a large enough effect; inconclusive = small, poorly fitted or top-dose-only effect; inactive = flat fitted curve, though single readings scatter. Potencies of inconclusive entries are left out as doubtful fits.

Assay: qHTS for Inhibitors of human tyrosyl-DNA phosphodiesterase 1 (TDP1): qHTS in cells in absence of CPT; also: nearly all actives have a fitted effect of over 55% in size
Conditions: DT40 Tdp1-/- hTDP1 cells, no CPT, ATP luminescence, 48 h; activity change, negative = growth inhibition: at 46.2 µM (top of the series)
Summary of the method: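 DT40 Tdp1-/-;hTDP1 cells, no CPT (DMSO vehicle only), 400 cells/well; compounds pin-transferred; ≥48 hr, 37 °C; CellTiter-Glo 30 min RT dark, luminescence read.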
% is scaled to controls: 0 for no effect and ±100 for the full control effect; potency is read from the fitted curve at half-maximal effect; tags tell the direction and shape of the fitted curve.

Row | SMILES | Potency | activity change, negative = growth inhibition
1 | CC(=O)Nc1ccc(NC(=O)c2ccccc2Nc2ccccc2)cc1 | inconclusive [inhibitor, single point] | –
2 | COc1ccc(C(=O)Nc2ccc(C(=O)N3CCC(C)CC3)cc2)cc1OC | inactive | –
3 | CC(C)C[C@@H](COCc1ccc(Cl)cc1)N1CCN(C(=O)c2ccc(Cl)cc2Cl)CCC1=O | active: 16.4 µM | –
4 | CC(=O)Nc1ccc2c(c1)Cc1ccc(Cl)cc1-2 | inactive | –
5 | COc1cc(C(=O)OCC(=O)N2CCOCC2)c([N+](=O)[O-])cc1OC | inactive | –
6 | COc1ccc(C(=O)NCC(=O)OCc2ccc(F)cc2Cl)cc1OC | inconclusive [inhibitor, single point] | –
7 | O=C(O)c1ccc(/C=N/N2CCN(C3c4ccccc4-c4ccccc43)CC2)cc1 | inactive | –
8 | CN(C)CCOCCOc1ccc(Cl)cc1C(C)(C)C | inconclusive [inhibitor, single point] | –
9 | CC(C)CCNC(=O)Nc1ccc2c(c1)N(C)C(=O)CS2 | inconclusive [inhibitor, partial curve, poor fit] | –
10 | CCCN1C(=O)SC(CC(=O)Nc2ccccc2)C1=O (stereo unspecified) | inconclusive [inhibitor, single point] | –
11 | CC(/C=C1\SC(=Nc2cccnc2)NC1=O)=C\c1ccccc1 | active: 2.91 µM | –
12 | C/C(=N\NC(=S)NC1CCCCC1)c1ccccc1 | active: 29.1 µM | –
13 | O=C1NC[C@H](c2ccccc2)N(CCC23CC4CC(CC(C4)C2)C3)C1=O | inconclusive [inhibitor, single point] | –
14 | Cc1ccc(CNc2nc3ccccc3n3nnnc23)cc1 | inactive | –
15 | Cc1cccc(N(C(=O)CNC(=O)c2ccco2)C(C(=O)NC2CCCCC2)c2cccnc2)c1 (stereo unspecified) | inactive | –
16 | O=C(N/N=C/c1c[nH]c2ccccc12)c1ccncc1 | inactive | –
17 | C=CCn1c(NCc2ccccc2)nc2ccccc21 | inactive | –
18 | CCC1CCCCN1C(=O)N[C@@H](CCSC)C(=O)OC (stereo partly specified) | inconclusive [inhibitor, single point] | –
19 | CCN(CC)C(=O)[C@H]1C[C@H](CC(=O)NCCCOC)C(=O)N2CCc3c([nH]c4cc(-c5ccco5)ccc34)[C@]12C | active: 18.4 µM | –
20 | Cc1ccc(/C=N/NC(=O)c2cc(-c3ccccc3)nc3ccccc23)o1 | active: 9.2 µM | –
21 | O=C(NCCCN1CCOCC1)c1cc(S(=O)(=O)N2CCOCC2)ccc1Cl | inactive | –
22 | COc1ccc(S(=O)(=O)N2CCCCC2)cc1C(=O)N1CCCCCC1 | inactive | –
23 | O=C1NC2(CCCCC2)C(=O)N1/N=C/c1ccccc1Br | inactive | –
24 | OC(COC(c1ccc(F)cc1)c1ccc(F)cc1)CN1CCCC(C(F)(F)F)C1 (stereo unspecified) | inconclusive [inhibitor, single point] | –
25 | Cc1cc(C)cc(NC(=O)C2CCCN(c3cnccn3)C2)c1 (stereo unspecified) | inconclusive [inhibitor, single point] | –
26 | O=C1C=C(N2CCOCC2)c2ccccc2C1=O | active: 2.31 µM | –

Row | SMILES | Potency | activity change, negative = growth inhibition
27 | CCN(CC(=O)Nc1c(F)cccc1F)C(=O)c1ccc2ncsc2c1 | inactive | –
28 | COc1ccc(Cn2cc(C(=O)c3ccccc3)c(=O)c3cc(OC)ccc32)cc1 | inactive | –
29 | O=C(NC1CCCCC1)C1CCCN(S(=O)(=O)c2cccc3cccnc23)C1 (stereo unspecified) | inconclusive [inhibitor, partial curve] | –
30 | O=C(NCc1ccc(F)cc1)c1cnc(N2CCOCC2)c2ccccc12 | active: 16.4 µM | –
31 | CC(Oc1ccc(Cl)cc1Cl)C(=O)NC1=NN(c2ccccc2)C(=O)C1 (stereo unspecified) | inconclusive [inhibitor, single point] | –
32 | O=C(CSc1ccc(-c2ccccn2)nn1)c1ccccc1 | inconclusive [inhibitor, single point] | –
33 | O=S(=O)(c1ccc(Br)cc1F)N1CCCCC1CCO (stereo unspecified) | inactive | –
34 | CCOc1cccc(/C=C/c2ccc3cccc(O)c3n2)c1O | active: 20.6 µM | –
35 | COc1ccc(-n2c(=O)c3c4c(sc3n(CC(=O)N3CCCCC3C)c2=O)CCC4)c(OC)c1 (stereo unspecified) | inconclusive [inhibitor, single point] | –
36 | C/C(=N\O)C(C)(C)Nc1ccccc1F | inactive | –
37 | Cc1cc(C)cc(OCC(O)CN2CCN(C(=O)c3ccco3)CC2)c1 (stereo unspecified) | inactive | –
38 | O=C(COC(=O)C1(c2ccc(Cl)cc2)CCCC1)NC1CCS(=O)(=O)C1 (stereo unspecified) | inconclusive [inhibitor, single point] | –
39 | O=C(C1Cc2ccccc2CN1C(=O)c1ccccc1)N1CCN(c2ccccc2)CC1 (stereo unspecified) | inconclusive [inhibitor, partial curve, poor fit] | –
40 | COc1ccccc1N1CCN(S(=O)(=O)c2c(C)sc3ncn(CC(=O)Nc4ccc(C(C)C)cc4)c(=O)c23)CC1 | inconclusive [inhibitor, partial curve] | –
41 | Cc1ccc(N2CCN(C(=O)c3ccc(Nc4nc5ccccc5n5nnnc45)cc3)CC2)c(C)c1 | inactive | –
42 | O=C(Nc1ccccc1)c1cc(C2CCCN(C(=O)OCc3ccccc3)C2)on1 (stereo unspecified) | inactive | –
43 | CCOC(=O)C1=NNC(C(=O)OCC)C1C(=O)OCC (stereo unspecified) | – | inconclusive: -20.8% [inhibitor]
44 | Cc1ccccc1C1c2[nH]c3ccccc3c2C[C@H]2C(=O)N(C3CC3)CC(=O)N12 (stereo partly specified) | inconclusive [inhibitor, single point] | –
45 | COc1ccccc1CN1CCCCCC1 | active: 18.4 µM | –
46 | O=C(NC1CCCC1)c1cnn(-c2ccc(F)cc2F)c1C1CCNCC1 | inconclusive [inhibitor, single point] | –
47 | CCOC(=O)c1cc(=O)n2nc(-c3ccc(C)cc3)nc2s1 | inactive | –
48 | C#Cc1ccc([C@H]2C=C(C(=O)N3CCN(Cc4ccc5c(c4)OCO5)CC3)O[C@@H](OCc3ccc(CO)cc3)C2)cc1 | inconclusive [inhibitor, single point] | –
49 | Cc1ccc(C2=NC(c3ccc(F)cc3)=Nc3ccc(C)cc3N2)cc1 | inconclusive [inhibitor, single point] | –
50 | CC1CCCC(NC(=O)c2cccc(S(=O)(=O)N3CCN(c4ccccc4)CC3)c2)C1C (stereo unspecified) | active: 13 µM | –
51 | O=C(Cc1cccc(NC(=O)C2CCCN(C(=O)C3CCC3)C2)c1)Nc1cccc(C(=O)N2CCCCC2)c1 (stereo unspecified) | inconclusive [inhibitor, single point] | –
52 | S=C(Nc1ccccc1)N1CCOCC1 | inactive | –

Row | SMILES | Potency | activity change, negative = growth inhibition
53 | CN1CCc2nc(SCc3ccc(Cl)cc3)c(C#N)c(-c3cccs3)c2C1 | inconclusive [inhibitor, single point] | –
54 | CC1CCCCC1NC(=O)CN1C(=O)NC(C)(c2cccc(Br)c2)C1=O (stereo unspecified) | inconclusive [inhibitor, single point] | –
55 | O=C(CN1CCN(Cc2ccccc2)CC1)Nc1cccc(S(=O)(=O)N2CCCCCC2)c1 | inconclusive [inhibitor, single point] | –
56 | CCC(=O)NC(Nc1nc2ccc(C)cc2s1)(C(=O)OC)C(F)(F)F (stereo unspecified) | inconclusive [inhibitor, single point] | –
57 | CCNCc1cc([N+](=O)[O-])ccc1OCC | inactive | –
58 | CCSc1nnc2c(n1)OC(c1ccc(OC)cc1OC)N(C(C)=O)c1ccccc1-2 (stereo unspecified) | inconclusive [inhibitor, single point] | –
59 | Cc1n[nH]c(=S)n1/N=C/c1ccccc1OCc1ccc(Cl)cc1 | inconclusive [inhibitor, single point] | –
60 | CC1=NCCN1CCNC(=O)Nc1ccc(F)cc1 | inactive | –
61 | CCOC(=O)C(NCc1ccccc1OC)(NC(=O)CC)C(F)(F)F (stereo unspecified) | – | inconclusive: -33.9% [inhibitor]
62 | Cc1ccc(S(=O)(=O)N2CCOCC2)cc1C(=O)N1CCN(S(=O)(=O)c2ccccc2F)CC1 | inactive | –
63 | COc1ccccc1OCC1CNC(=O)O1 (stereo unspecified) | inactive | –
64 | Cc1nc(C(F)(F)F)c(C(=O)NC(=O)Nc2ccc(OC(F)(F)F)cc2)s1 | inconclusive [inhibitor, single point] | –
65 | Nc1nc(CSCCO)nc(Nc2ccccc2)n1 | inconclusive [inhibitor, single point] | –
66 | CCCCn1cnc2cc(NCc3cccc(OC)c3O)ccc21 | inactive | –
67 | Cc1ccc(OCCNC(=O)/C=C/c2ccco2)cc1C | inconclusive [inhibitor, single point] | –
68 | CN(C)c1ccc(S(=O)(=O)N2CCC(Cc3ccccc3)CC2)cn1 | inconclusive [inhibitor, single point] | –
69 | COC(=O)C1CCCCN1Cc1ccc2c(c1)CN(C(=O)c1csc(-c3cccs3)n1)CCO2 (stereo unspecified) | inconclusive [inhibitor, partial curve, poor fit] | –
70 | O=C(NCCCN1CCCC1=O)c1cccc(S(=O)(=O)N2CCCCC2)c1 | inactive | –
71 | O=C1CCCN2N=C(SCC(=O)Nc3ccc(F)cc3F)SC2=N1 | inconclusive [inhibitor, single point] | –
72 | CCOC(=O)c1ccc(NC(=O)c2cccc(S(=O)(=O)N3CCN(C(C)=O)CC3)c2)cc1 | active: 13 µM | –
73 | CC(/C=C/c1ccco1)=N\NC(=O)c1cc(Cl)ccc1O | inconclusive [inhibitor, single point] | –
74 | O=C(CSc1nnc(-c2ccccc2Br)o1)N1CCN(C(=O)c2ccco2)CC1 | inconclusive [inhibitor, partial curve] | –
75 | COc1cccc(COC(=O)C2CC(=O)N(Cc3ccccc3)C2)c1OC (stereo unspecified) | inactive | –
76 | Cc1noc(C)c1COC(=O)c1cc(S(=O)(=O)N2CCOCC2)ccc1Cl | inconclusive [inhibitor, single point] | –
